Assay results published in the RNAGym collection of RNA variant scans (doi:10.7554/elife.90254).
The source gives no read counts; variants with many changes may rest on few reads.

B1: LINE1-mini (parent)
chain: GGCAGAGCUCAACACAGCGUGGCAAAGUGGCUGUGGCUAGACUGCC

Variants of: B1
Experiment: self-cleavage, relative activity (ratio to wild type); higher = more cleavage; in vitro, sequencing; the parent is a self-cleaving ribozyme

Variant | self-cleavage
GGCAGAGCUCAAUUCAGCGUGGCAAAGUGGCUGUGGGUAGACUGCC | 0.01
GGCAGAGCUCAAUAAAGAGUUGCAAAAUGGCUGUGUCCAGAUUGCC | 0.02
GGCAGAGCUCAAUACAGCCUGUCAAAGGGGCUGUGGCUAUACAGCC | 0.03
GGCAGAGCUCAAUACAGCUUGGCACAGUGGCUGUGGCUAAACUGCC | 0.04
GGCAGAGCUCAAUACAGCGUGGCAAUGUGGCUGUGGCUAGACUGAC | 0.07
GGCAGAGCUCAAUACAGCGUGGCAAAGUGGUUGUGGAUAGACUGUC | 0.02
GGCAGAGCUCAAGACAGCGCGGUAAAGUGGCUGUGGUUAGACUGCC | 0.01
GGCAGAGCUCAAUACAGUGUGGCAAAGUGCAUGUGGCUAGACUGCC | 0.21
GGCAGAGCUCAAUACAAGGUGGCAAAGUGGCUGUGGCUCGACUGCC | 0.01
GGCAGAGCUCAAUACAGCCUGGCAAAGUGGCUGUGGCUAGACUGCU | 0.05
GGCAGAGCUCAAUACAGCAUGGCAAACUGGCUGUGGCUAGACUGCC | 0.18
GGCAGAGCUCAAUACAGCGUGGCGAAGGGGCUGUGGCUAGACUGCA | 0.17
GGCAGAGCUCAAUUCAGCGUGGCAAAGUGGCUGUGGCUAGACUGCU | 0.04
GGCAGAGCUCAAUACAGCGUUGCAAAGUGGCUGUGGCUAGACUGGC | 0.07
GGCAGAGCUCAAUACAGCGUGGCAAAGUGACUGUGGCUGGACAGCC | 0.03
GGCAGAGCUCAAUUCAGCGUGGCAAAGUGGGUGUGGCUAGACUGCC | 0.06
GGCAGAGCUCAAUAUAGCGUGGCAAAGUGGCUGUUGCUAGACUGCC | 0.06
GGCAGAGCUCAAGACAGCGUGGCAAAGUGGCUGCGGCUGGACUGCC | 0.24
GGCAGAGCUCAAUACAGCGUGGCAAAAUGGCUGUGGCUAGACUGCG | 0.13
GGCAGAGCUCAAUACAGCGUGGCAAAGUGGAUGUGGCUAGAGCGCC | 0.02
GGCAGAGCUCAAUACAGCGUGGCAAAGUGGCUAUGGCUAGACUCCC | 0.17
GGCAGAGCUCAAUACAGCGUUGCAAAGUGGCUGUGGCUAGACUCCC | 0.06
GGCAGAGCUCAAUACUGCGUGGCAAAUGGGCUGUGGCUAGACUGCC | 0.13

Variant | self-cleavage
GGCAGAGCUCAAUAAAGUUUGGCAAAGUGGCUGUGGCUGGACUGCC | 0.42
GGCAGAGCUCAAUACACCGUGGCAAAGUGGCUGUGGCUAAUCUGCC | 0.02
GGCAGAGCUCAAUACAUCGUGGGAAAGUGGCUGUGGCUAGACUGCC | 0.11
GGCAGAGCUCAAUACAGCGUGUCAAAGUGACUGUGGCUAGACUGCC | 0.36
GGCAGAGCUCAAGACAGCGAGGCAAAGUGCCUGUGGCUAGUCUACC | 0.04
GGCAGAGCUCAAUACAGCGUGGCUUAGUGGCUGUGGCUGGAAUGCC | 0.21
GGCAGAGCUCAAUAGAGCGUGGCAAAUUGGCUGAGGCUAGACUGCC | 0.01
GGCAGAGCUCAAUACGGCGUGGCAAAGUGGUUGUGGCUAGACUGCC | 0.03
GGCAGAGCUCAAUACAGCGUGGAUAAGUGGCUGUGGCUAGACAGCC | 0.03
GGCAGAGCUCAAUACAGCGUGGCAUAUUGGCUGUGGCUAGACUGCC | 0.02
GGCAGAGCUCAAUACAGCGUGACAAAGUGGCUGUGGCUAGACUUCC | 0.13
GGCAGAGCUCAAUACAGCGUGGCAAACUGUCCGUGGCUAGACUGCC | 0.07
GGCAGAGCUCAAUAGAGCGUGGCAAAGUGGCGGUGGCUAGACUGCG | 0
GGCAGAGCUCAAGACAGCGUGGCAAAGUGGCCGUGCCUAGACUGCC | 0.09
GGCAGAGCUCAAUACAUCGUGGCAAAGUGGCCGUGGCUAGACUGCC | 0.06
GGCAGAGCUCAAUACAGCGUGGCAAAGUGGAUGUGGCUAGACUGCA | 0.01
GGCAGAGCUCAAUACAGCGUGGCUAAGUGGCUGUGGCAAGACUGCC | 0.27
GGCAGAGCUCAAUACAGCGUGGCAAAGUGGAUGUGGCUAGAUUGCC | 0
GGCAGAGCUCAAUACCGCGUGGCAAAGUGGCUAUGGCUAGACUGCA | 0.08
GGCAGAGCUCAAUACAGGGUGGCAAAGUGGCUGUGGCUAGACAGCC | 0.02
GGCAGAGCUCAAUACUGCGUGGCAAAGUGGCUGUUGUUAGACUGCC | 0.04
GGCAGAGCUCAAGACAGCGUGGCAAAGGGGCGGUGGCUAGACUGCC | 0.01
GGCAGAGCUCAAUACAGCGUCUCAAAGUGGCUGUGGCUAGACUACC | 0.04

Variant | self-cleavage
GGCAGAGCUCAAUUCAGCGUAGCAAAGUGGCUGUGGCUAGGCUGCC | 0.23
GGCAGAGCUCAAUACAGCGUGGGUAAGUGGCUGUGGCUAGCCUGCC | 0.02
GGCAGAGCUCAAGACAGCGGGGCAAAGUUGCUGUGGCUAGACUGCC | 0.15
GGCAGAGCUCAAUACAGCGUGGCAAAGUGACUGUGGCUAGACUUCC | 0.01
GGCAGAGCUCAAUACAGCGUGGCAAAGUGGCUGUGGCUAGAUUGCA | 0.06
GGCAGAGCUCAAUAAAGGGUGGCAAAGAGGCUGUGGCUAGACUGCC | 0.03
GGCAGAGCUCAAUCGAGCGUGGCAAAACGGCUGUGGCUAGACACCC | 0.01
GGCAGAGCUCAAUACAGCGUGGCAAAGUUGCUGUUGCUAGACUGCC | 0.41
GGCAGAGCUCAAUGCAGCGUGGCAAAGUGCCUGUGAUUAGACUGCC | 0.03
GGCAGAGCUCAAUACAGCGUGGCAAAGUGGAUGCGGCUAGACUGCC | 0.18
GGCAGAGCUCAAUAUAGCGUGGCAAAGUGGCUGUAGCUAGGCUGCC | 0.12
GGCAGAGCUCAAUACAGCAUGGCAAAGUGGCUGUUGCUAGACUCCC | 0.1
GGCAGAGCUCAAUACUGCAUGGCAAAAUGGCUGUGGCUAGACUGCC | 0.09
GGCAGAGCUCAAUACAGCGUGGCAAAGUGGCUGUGGCUAGACUGUA | 0.02
GGCAGAGCUCAAUAAAGCGUGACAAAGUGGCUGGGGCUAGACUGCC | 0.08
GGCAGAGCUCAAUCCAGCGUGGCAGAGUGGCUGUGUCUAGACUGCC | 0.01
GGCAGAGCUCAAUACAGCGUGGCCAAGCCGCUGUGGAAAGACUCCA | 0.02
GGCAGAGCUCAAUACUGCGUGGCAAAGUGGCUGUUGCUAGACUGCC | 0.3
GGCAGAGCUCAAUACAGCGUUCCAAAGUGGCUGUGGCUAGACUGCC | 0.35
GGCAGAGCUCAAUACAUCGUGGCAAAGUGGCUAUGGCUAGACUGCA | 0.08
GGCAGAGCUCAAUACAGUGUGGCUAGGUGGCUGAGGAUAGACUGCC | 0.03
GGCAGAGCUCAAUACCACGUGGCAAAGUGGCUGUGGCUAGACUGCC | 0.1
GGCAGAGCUCAAGACAGCGUGGCAAAGCUGCUGUGGCUAGACUGCC | 0.11

Variant | self-cleavage
GGCAGAGCUCAAUACAGCGUGGCAAAGUGGACGUGGCUAGACUGCC | 0.03
GGCAGAGCUCAAUACAGCGUGGAAAAGAGGUUGUGGCUAGCCUGCC | 0.04
GGCAGAGCUCAAUACAGCGUUGCAAAGUGGCUGUGGCUAGAUUGAC | 0.13
GGCAGAGCUCAAUACCGCGUGGCAAAGUGACUGUGGCUAGACAGCC | 0.04
GGCAGAGCUCAAUACAACGUGGAAAAGUGGCUGUGGCUAGACUGCC | 0.54
GGCAGAGCUCAAUACAUCGUGUCAAAGUGGCUGUGGCUAGACUGCC | 0.03
GGCAGAGCUCAAUACAGAGUGGCAAAGUGGCUGUGGCUAGACUGGC | 0.03
GGCAGAGCUCAAUACAGCGUCGCAAAGUGGCUGUGGCUAGACUCCC | 0.03
GGCAGAGCUCAAUACAGCGUGGCAAAGUGACUGUGGCUAGACUGUC | 0.08
GGCAGAGCUCAAUACAGCGUGGCAAAGUGUCUGUGGCUAGACAGCC | 0.08
GGCAGAGCUCAAUACAGCGUGGCAACGUUGUUCUGGCUAGACUGCC | 0.05
GGCAGAGCUCAAGACAGCGUGGCAAAGUGGCUGUGGCUACACUGAC | 0.06
GGCAGAGCUCAAUACCACGUGGCAAAGUGGCUGUGGCGAGACUGCC | 0.01
GGCAGAGCUCAAUACAGGGUGGUAAAGUGGCUGUGGCUAGACUGCC | 0.04
GGCAGAGCUCAAUACAACGUGACAAAGUGGCUGUGGCUAGACUGCC | 0
GGCAGAGCUCAAUACAGCGUUGCAAAGUGGCUUUGGCCAGACUGCC | 0.02
GGCAGAGCUCAAGACAGCGAGGCAAAGUGGCUGAGGCUAGACUGCC | 0.03
GGCAGAGCUCAAUACAGCCUGGCAUAGUGGCUGUGGCUAGACUGCC | 0.07
GGCAGAGCUCAAUACAGCGUGGCAAAGUGGCUGUGGCUAGCAUGCC | 0.06
GGCAGAGCUCAAUACAGCGUGGCAUUGUUGCUGUGGCUAGACUGCC | 0.47
GGCAGAGCUCAAUACAGCGUGACAAAGUGUCUGGGGCUAGACCGCC | 0.02
GGCAGAGCUCAAUACGGCGUGGCAAAGUGGCUGUGGCUAGUCUGCC | 0.39
GGCAGAGCUCAAUACAGCGUGGCAAAGUGACUGUGGCAAGACUGCC | 0.17

Variant | self-cleavage
GGCAGAGCUCAAUUCAGCGUGGCAAAGAGGCUGCGGCUAGUCUGCC | 0.15
GGCAGAGCUCAAUAGAGCGUGGAAAAGUGGCUGUGGCUAGACUGCC | 0.01
GGCAGAGCUCAAUACAGCAUUGCAAGGUGGCUGUGGCUAGACUGCC | 0.11
GGCAGAGCUCAAUAAAGCGUGGCAAAGUGGCUGUGGAUAGACUGCC | 0.09
GGCAGAGCUCAAUACAGCGUGGCAGAGUGGCUGUGGCCAGACUGCC | 0.03
GGCAGAGCUCAAUAUAGCAUGGCAAAGUGGCGGUGGCUAGACUGCC | 0.17
GGCAGAGCUCAAUAUAGGAUGGCAAAGUGGCUGUGGCAAGGCUGGC | 0.04
GGCAGAGCUCAAUACAGCGUGGCAAACUGGCUGUGGCUAGCCUGCC | 0.01
GGCAGAGCUCAAUACAGCGUAGGAUAGUGGCUGUGGCUAGACUGCC | 0.14
GGCAGAGCUCAAUACAGCGUGACAAAGUGUCUGUGGCAAGACUGCC | 0.06
GGCAGAGCUCAAUACAGCGUGGCAUAGUGGCUGUGGCUAGACUGAC | 0.07
GGCAGAGCUCAAUACAGCGUUGCAAAGUGGCUGUGGGUAGACUGCC | 0.02
GGCAGAGCUCAAGACAGCGGGGCGAAGUGGCUGUAGCUAGAUUGCC | 0.05
GGCAGAGCUCAAUACAGCGUGGCAAAGUGGCUGUGGAUAGUCUGCC | 0.09
GGCAGAGCUCAAUACAGCGUAGCAAAGUGGCUGUGCCUAGACUGCC | 0.03
GGCAGAGCUCAAGACAGCGUGGCAAAGGGGCUGUGGCUAGAAUGCC | 0.02
GGCAGAGCUCAAUACAGCGUGGCAAGGUGGCUGUGGCUAGACUGUC | 0.11
GGCAGAGCUCAAUACAGCGUUGCAAAGUGGCUGUGACUAGACUGCC | 0.92
GGCAGAGCUCAAUACAGCGUGACAAUCUGGCUGUGGCUAGACUGCC | 0.06
GGCAGAGCUCAAUGCUGCGUGGCAAAGUGGCUUUGGCGAGACUGCC | 0.02
